According to PubChem BioAssay AID686978 (National Center for Advancing Translational Sciences (NCATS), 2013):
Where “and” joins values, the source holds several entries; their conditions need not be identical. Identical values can stand only once. The whole screen tested about 420,000 compounds, of which about 64,000 (15%) were called active. The shares of active, inactive and inconclusive entries below differ from those in the screen. The call rests on the fitted dose curve; in most records, active means well fitted inhibition curve with a large enough effect; inconclusive means small, poorly fitted or top-dose-only effect; inactive means flat fitted curve, though single readings scatter. A potency beside an inconclusive call is a rough fit, not a confirmed value.
On the % scale 0 is the no-effect control and ±100 the full control effect; potency means the concentration at half of the fitted maximal effect; tags describe the fitted curve by direction and shape.

Test: qHTS for Inhibitors of human tyrosyl-DNA phosphodiesterase 1 (TDP1): qHTS in cells in absence of CPT; further: nearly all actives have a fitted effect of over 55% in size
Conditions: DT40 Tdp1-/- hTDP1 cells, no CPT, ATP luminescence, 48 h; activity change, negative = growth inhibition: at 46.2 µM (top of the series) unless noted
Method in brief: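 Stably hTDP1-transfected Tdp1-null chicken DT40 cells were treated with library compounds minus camptothecin and grown for at least 48 hr at 37 °C, after which cellular ATP was quantified by luminescence.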
In the case of `OC1C(Br)=Cc2ccccc21` (configuration not stated), the Potency is reported as inconclusive: 5.62 µM [inhibitor, partial curve, poor fit].
In the case of `CC(=O)c1ccc(NC(=O)c2ccc(-n3cnnn3)cc2)cc1`, the “activity change, negative = growth inhibition” value is reported as inactive: -14.6%.
With `O=S(=O)(NC1CC(NS(=O)(=O)OCC(Cl)(Cl)Cl)C2CCCCC12)OCC(Cl)(Cl)Cl` (configuration not stated) the Potency was active: 14.6 µM.
In the case of `CCCCCCCSc1nsc(N)n1`, the Potency is reported as inconclusive: 8.2 µM [inhibitor, partial curve].
In the case of `O=Cc1cc(Cl)ccc1OCCN1CCC(Cc2ccccc2)CC1`, the Potency is reported as active: 16.4 µM.
For `Cc1ccc(-c2nnc(N3CC(C)OC(C)C3)c3ccccc23)cc1` (configuration not stated), the Potency was active: 16.4 µM.
For `Cc1nnc(-c2cnn(-c3ccccc3)c2N)n1Cc1ccc(F)cc1`, the “activity change, negative = growth inhibition” value was inactive: -27.4%.
In the case of `Cc1cccc(NC(=O)Cn2c(=O)n(CC3CCC(C(=O)NCCc4ccccc4)CC3)c(=O)c3ccccc32)c1` (configuration not stated), the Potency is reported as inconclusive: 25.9 µM [inhibitor, single point].
In the case of `COCCn1c(CN2CCC(Cc3ccccc3)CC2)nc2c1c(=O)n(C)c(=O)n2C`, the Potency is reported as active: 7.31 µM.
With `COc1ccccc1N(CC(O)CN1C(C)CCCC1C)S(=O)(=O)c1ccccc1` (configuration not stated) the “activity change, negative = growth inhibition” value was inactive: -17.7%.
For `CC(NC(=O)c1ccccc1NS(=O)(=O)c1ccc(CCC(=O)O)cc1)c1ccccc1` (configuration not stated), the “activity change, negative = growth inhibition” value was inactive: -5.71%.
For `Cn1c(=O)n(Cc2ccccc2F)c(=O)c2c1nc1n2CCN1Cc1ccco1`, the “activity change, negative = growth inhibition” value was inactive: -21.4%.
For `CCN(CC)S(=O)(=O)c1ccc(Cl)c(NC(=O)c2ccncc2)c1`, the “activity change, negative = growth inhibition” value was inactive: -13.3%.
In the case of `CCOC(=O)c1cc(-c2ccc(F)cc2)n(CCC(=O)NC2CCC(C)CC2)c1C` (configuration not stated), the Potency is reported as active: 16.4 µM.
For `CNC(=S)N1N=C(c2ccc(OC)cc2)CC1c1ccc(N(C)C)cc1` (configuration not stated), the Potency was inconclusive: 29.1 µM [inhibitor, single point].
In the case of `CCN1CCN(C2=CC3=CC(=C(C#N)C#N)CCC3CC2)CC1` (configuration not stated), the Potency is reported as inconclusive: 16.4 µM [inhibitor, partial curve].
In the case of `Cc1cccc(N(Cc2cc(=O)[nH]c3ccccc23)C(=O)CCl)c1`, the Potency is reported as active: 5.17 µM.
For `O=C(COC(=O)/C=C/c1nc2ccccc2s1)Nc1ccccc1Oc1ccccc1`, the “activity change, negative = growth inhibition” value was inactive: -27%.
For `Cc1cc(S(=O)(=O)n2[nH]c(=O)c(CCO)c2C)c(Cl)cc1Cl`, the Potency was inconclusive: 23.1 µM [inhibitor, partial curve].
With `Cc1c[n+]([O-])cc(C)c1[N+](=O)[O-]` the “activity change, negative = growth inhibition” value was inactive: -16%.
With `Nc1c(C(=O)N/N=C/c2ccc(F)cc2)oc2nc(-c3ccccc3)cc(-c3ccco3)c12` the Potency was active: 10.3 µM.
With `COc1cccc(OC)c1CN1CCCC(C(=O)c2ccccc2SC)C1` (configuration not stated) the Potency was active: 20.6 µM.
With `CC1Cc2ccccc2N1C(=O)c1ccc(F)c(S(=O)(=O)N2CCOCC2)c1` (configuration not stated) the Potency was inconclusive: 18.4 µM [inhibitor, single point].
In the case of `O=C(O)CCCC(=O)Nc1ccc(Oc2cccc(C(F)(F)F)c2)nc1`, the “activity change, negative = growth inhibition” value is reported as inactive: -10.7%.
For `CCc1ccc(-c2nc3cc(NC(=O)c4ccc(C)c(C)c4)ccc3o2)cc1`, the Potency was inconclusive: 5.8 µM [inhibitor, full curve, poor fit].
In the case of `CCCCCCC(C)OC(=O)Nc1cccc2ccccc12` (configuration not stated), the Potency is reported as inconclusive: 29.1 µM [inhibitor, single point].
In the case of `COCCn1c(SC(C)C(=O)Nc2ccc3c(c2)OCCO3)nc2ccccc2c1=O` (configuration not stated), the Potency is reported as inconclusive: 23.1 µM [inhibitor, partial curve].
With `CCCCCCCCN1C(=O)N(C)C(N(O)C(=O)NC)C1(C)C` (configuration not stated) the Potency was inconclusive: 23.1 µM [inhibitor, partial curve].
For `CSCC[C@H](NC(=O)[C@@H]1Cc2ccccc2CN1)C(=O)Nc1ccc2c(c1)OCCO2`, the “activity change, negative = growth inhibition” value was inactive: 3.94%.
In the case of `CC1=C(C(=O)N2CCCCCC2)CC(CC(=O)NCC2CCCCC2)C(=O)N1Cc1ccccc1` (configuration not stated), the Potency is reported as inconclusive: 20.6 µM [inhibitor, single point].
For `COc1ccccc1NS(=O)(=O)c1cccc(C(=O)N/N=C/c2ccc3c(c2)OCCO3)c1`, the “activity change, negative = growth inhibition” value was inactive: -19.5%.
In the case of `COc1ccc(S(=O)(=O)n2nc(-c3ccco3)nc2NCc2ccc(C(C)C)cc2)cc1`, the Potency is reported as active: 23.1 µM.
With `CC(=O)c1ccc(OCCCC(=O)NC2CCCc3ccccc32)cc1` (configuration not stated) the Potency was inconclusive: 29.1 µM [inhibitor, single point].
With `Nc1ccc(-n2c(N)c(C(=O)NCc3ccc4c(c3)OCO4)c3nc4ccccc4nc32)cc1` the Potency was inconclusive: 29.1 µM [inhibitor, single point].
For `CCN(CC)C(=O)c1ccc(C(=O)c2c(C)cc(C)cc2C)cc1`, the Potency was active: 20.6 µM.
For `CCOc1ccc(C(=O)Nc2ccc(OCc3cc(=O)n4cccc(C)c4n3)cc2)cc1`, the “activity change, negative = growth inhibition” value was inactive: 14.5%.
In the case of `COc1ccc(CN=Cc2[nH]c3ccc(Br)c(Cl)c3c2O)cc1`, the Potency is reported as inconclusive: 29.1 µM [inhibitor, single point].
For `O=c1[nH]c(C2CCN(S(=O)(=O)c3ccccc3C(F)(F)F)CC2)nc2c1nnn2Cc1cccc(F)c1`, the Potency was inconclusive: 29.1 µM [inhibitor, single point].
For `Cc1c(C(=O)NCc2ccc(C(C)C)cc2)sc(=O)n1Cc1cccc(F)c1`, the Potency was inconclusive: 29.1 µM [inhibitor, single point].
For `OC(COCc1ccc2c(c1)OCO2)CN1CCCCC1` (configuration not stated), the “activity change, negative = growth inhibition” value was inactive: -20.6%.
For `Cc1cc2oc(=O)cc(CN3CCCCCCC3)c2cc1Cl`, the Potency was inconclusive: 29.1 µM [inhibitor, single point].
With `CSCCC(NC(=O)c1ccc(C(C)(C)C)cc1)C(=O)O` (configuration not stated) the “activity change, negative = growth inhibition” value was inactive: 0.985%.
With `Cc1csc(NC(=O)CN2CCCCCC2)n1` the Potency was inconclusive: 18.4 µM [inhibitor, partial curve].
For `FC(F)(F)c1ccccc1Cc1c(C2CCCCC2)nc2ccc(Cl)cn12`, the Potency was inconclusive: 29.1 µM [inhibitor, single point].
With `O=C(NCCCN1CCN(c2ccccc2F)CC1)c1ccc2nc(CCc3ccccc3)oc2c1` the Potency was active: 14.6 µM.
For `Cc1cc(C(=O)N/N=C/c2cc(Cl)cc([N+](=O)[O-])c2O)n[nH]1`, the “activity change, negative = growth inhibition” value was inactive: -8.77%.
For `CC(C)(C)c1ccc(C2(C)NC(=O)N(CC(=O)NC3CCS(=O)(=O)C3)C2=O)cc1` (configuration not stated), the “activity change, negative = growth inhibition” value was inactive: -5.02%.
For `O=C(OCc1cc(=O)n2c(n1)sc1ccccc12)c1ccc(O)cc1O`, the Potency was inconclusive: 7.31 µM [inhibitor, partial curve].
For `Cn1cc(-c2nc3cncnc3n(-c3ccccc3)c2=O)c2ccccc21`, the “activity change, negative = growth inhibition” value was inactive: -24.1%.
For `Cn1c(=O)c2[nH]c(N=NNc3ccccc3F)nc2n(C)c1=O`, the “activity change, negative = growth inhibition” value was inactive: 4.48%.
For `COc1ccc(NC(=O)/C(C#N)=C\c2ccc(OCc3ccc(C(=O)O)cc3)c(OC)c2)cc1`, the “activity change, negative = growth inhibition” value was inactive: -19.5%.
In the case of `O=C(COc1ccccc1Cl)NNC(=O)Cn1[nH]c(=O)c2ccccc2c1=O`, the Potency is reported as inconclusive: 2.06 µM [inhibitor, partial curve].
For `CC(=O)C1=C(O)C(=O)N(c2ccc(Br)cn2)C1c1ccc(F)cc1` (configuration not stated), the “activity change, negative = growth inhibition” value was inactive: -24.3%.
For `COc1ccc(S(=O)(=O)NCc2cccn2Cc2cc(C)ccc2C)cc1OC`, the Potency was inconclusive: 16.4 µM [inhibitor, partial curve].
With `CCc1nnc2c3ccccc3nc(Nc3cc(C)cc(C)c3)n12` the Potency was active: 3.66 µM.
For `COc1ccc(-c2cc(-c3nc(-c4cc(OC)c(OC)c(OC)c4)no3)[nH]n2)c(OC)c1`, the Potency was active: 13 µM.
With `Cc1nc2ccccc2n1Cc1ccc(Cl)cc1` the Potency was active: 2.11 µM and active: 7.31 µM.
In the case of `O=S(=O)(Nc1ccc2ccccc2c1)c1ccccc1`, the Potency is reported as inconclusive: 20.6 µM [inhibitor, single point].
In the case of `O=C(CSc1nnc(NC(=O)c2cccc(Br)c2)s1)NCC1CCCO1` (configuration not stated), the “activity change, negative = growth inhibition” value is reported as inactive: -8.37%.
With `COc1ccc(CCNC(=O)C(=O)NCc2ccccc2)cc1OC` the Potency was active: 5.17 µM.
In the case of `COc1ccc(C(=O)NC(=S)N2CCCCC2c2cccnc2)cc1OC` (configuration not stated), the Potency is reported as inconclusive: 3.66 µM [inhibitor, single point].
For `CCCNC(=O)N1CCN(S(C)(=O)=O)CC1`, the “activity change, negative = growth inhibition” value was inactive: -2.14%.
With `Cc1cc(C)n2nc(SCC(=O)N3CCc4ccccc43)nc2n1` the Potency was inconclusive: 25.9 µM [inhibitor, single point].
For `CCOc1ccc(NC(=O)c2sc(N3CCOCC3)nc2-c2ccccc2)cc1`, the Potency was active: 23.1 µM.
In the case of `CCOC(=O)C(C)n1nc(/C=C/c2ccccc2)ccc1=O` (configuration not stated), the Potency is reported as inconclusive: 29.1 µM [inhibitor, single point].
For `CCOC(=O)c1ccc(NC(=O)CC(C)n2nc(C)cc2C)cc1` (configuration not stated), the Potency was inconclusive: 25.9 µM [inhibitor, single point].
In the case of `CC(NS(=O)(=O)c1ccc(F)cc1)C(c1cccs1)N1CCOCC1` (configuration not stated), the activity change, negative = growth inhibition is reported as inconclusive: -30% [inhibitor].
In the case of `COC(=O)c1nnn(-c2nc(N(C)C)nc(N(C)C)n2)c1C`, the “activity change, negative = growth inhibition” value is reported as inactive: -13.7%.
In the case of `CCCCCCCCCc1conc1C(=O)/C=C/c1ccco1`, the “activity change, negative = growth inhibition” value is reported as inactive: -12.8%.
For `CC1CCN(C(=O)CCN2C(=O)C3C4C=CC(C4)C3C2=O)CC1` (configuration not stated), the “activity change, negative = growth inhibition” value was inactive: -3.61%.
In the case of `CC(C)N1CCN(Cc2ccc(-c3ccccc3Cl)o2)CC1CCO` (configuration not stated), the Potency is reported as inconclusive: 25.9 µM [inhibitor, single point].
With `CC(=O)C[C@H]1c2cc(C(F)(F)F)ccc2S(=O)(=O)N1C1CCCC1` the Potency was inconclusive: 35.5 µM [inhibitor, single point] and inconclusive: 18.4 µM [inhibitor, single point].
With `CC(NCC(O)COCCC12CC3CC(CC(C3)C1)C2)c1ccccc1` (configuration not stated) the Potency was active: 14.6 µM.
For `Cc1ccc(C)n1-c1ccc(C(=O)N2CCC(C(N)=O)CC2)cc1`, the Potency was inconclusive: 29.1 µM [inhibitor, single point].
In the case of `Cc1cccc(Cn2c(N3CCN(C)CC3)nc3c2c(=O)n(C)c(=O)n3C)c1`, the “activity change, negative = growth inhibition” value is reported as inactive: -5.14%.
In the case of `Cc1nn(C)cc1S(=O)(=O)N1CCN(Cc2ccc(F)cc2Cl)CC1`, the “activity change, negative = growth inhibition” value is reported as inactive: -10.1%.
In the case of `Cc1cccc(-n2ncc3c(NNC(=O)c4ccccc4Cl)ncnc32)c1`, the Potency is reported as inconclusive: 18.4 µM [inhibitor, single point].
